Publication PMC4336329 (PLoS ONE, 2015)
The whole screen tested about 310,000 compounds, of which about 14,000 (4.5%) showed an effect of 50% or more. The effect is printed as a negative number. Some of the results follow.

target: human ether-à-go-go-related gene (hERG) potassium channel (human, UniProt Q12809); assay: primary screen, population patch clamp on CHO cells stably expressing hERG
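Also: peak tail current of the secondary pulse compared with the same well before compound.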

Sequence of human ether-à-go-go-related gene (hERG) potassium channel (Q12809 whole entry, looked up): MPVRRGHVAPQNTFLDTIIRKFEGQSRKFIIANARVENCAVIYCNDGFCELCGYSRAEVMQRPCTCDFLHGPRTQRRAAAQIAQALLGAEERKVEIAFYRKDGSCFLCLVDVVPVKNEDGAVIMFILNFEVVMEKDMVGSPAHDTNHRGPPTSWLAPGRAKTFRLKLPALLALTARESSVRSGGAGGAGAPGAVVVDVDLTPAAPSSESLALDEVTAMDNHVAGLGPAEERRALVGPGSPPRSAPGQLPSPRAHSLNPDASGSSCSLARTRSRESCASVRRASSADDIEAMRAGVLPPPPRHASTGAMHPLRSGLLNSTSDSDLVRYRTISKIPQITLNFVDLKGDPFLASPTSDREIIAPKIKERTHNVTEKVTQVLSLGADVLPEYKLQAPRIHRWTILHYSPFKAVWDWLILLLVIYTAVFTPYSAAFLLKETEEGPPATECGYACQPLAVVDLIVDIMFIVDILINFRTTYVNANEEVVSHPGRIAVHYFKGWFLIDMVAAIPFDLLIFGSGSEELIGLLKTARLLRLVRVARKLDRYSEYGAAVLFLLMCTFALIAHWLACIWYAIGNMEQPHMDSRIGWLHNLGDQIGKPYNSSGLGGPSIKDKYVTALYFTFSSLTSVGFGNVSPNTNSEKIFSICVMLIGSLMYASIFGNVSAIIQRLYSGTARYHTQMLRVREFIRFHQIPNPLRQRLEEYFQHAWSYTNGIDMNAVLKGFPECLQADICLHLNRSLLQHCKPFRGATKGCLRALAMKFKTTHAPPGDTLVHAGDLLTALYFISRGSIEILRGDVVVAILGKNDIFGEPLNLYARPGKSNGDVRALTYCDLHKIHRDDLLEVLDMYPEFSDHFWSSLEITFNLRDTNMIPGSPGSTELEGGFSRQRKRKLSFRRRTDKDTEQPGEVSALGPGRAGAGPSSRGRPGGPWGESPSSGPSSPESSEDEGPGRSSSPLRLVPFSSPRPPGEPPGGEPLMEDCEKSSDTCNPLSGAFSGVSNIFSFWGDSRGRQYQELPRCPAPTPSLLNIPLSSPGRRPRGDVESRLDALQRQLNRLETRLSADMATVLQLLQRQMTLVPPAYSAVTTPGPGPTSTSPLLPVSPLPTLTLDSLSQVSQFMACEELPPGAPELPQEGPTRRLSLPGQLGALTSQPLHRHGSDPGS

Question: Which “hERG current change (%, negative = inhibition) at 10uM” value does the source give for `O=C(COC(=O)CNC(=O)C1CCCCC1)NCc1ccccc1` here?
Answer: -0.223%

Question: How did the “hERG current change (%, negative = inhibition) at 10uM” value turn out when `CCOC(=O)c1cc2occc2n1CC(=O)Nc1ccc(OC)cc1OC` was run?
Answer: -15%

Question: How did the “hERG current change (%, negative = inhibition) at 10uM” value turn out when `c1ccc2c(c1)[nH]c1c(N3CCCC3)ncnc12` was run?
Answer: -15.2%

Question: Which “hERG current change (%, negative = inhibition) at 10uM” value does the source give for `COc1cc(/C=N/O)ccc1Oc1ccc([N+](=O)[O-])cc1[N+](=O)[O-]` here?
Answer: -45.9%

Question: With `C/C(CC(=O)Nc1ccc(C)c(Cl)c1)=N\NC(=O)C1CCCCC1` as the compound, how does the “hERG current change (%, negative = inhibition) at 10uM” value read?
Answer: 7.46%

Question: With `O=C1CCc2cc(S(=O)(=O)NCc3ccc(F)cc3)cc3c2N1CCC3` as the compound, how does the “hERG current change (%, negative = inhibition) at 10uM” value read?
Answer: -10.8%

Question: `COc1ccc(OCCOc2ccc(S(=O)(=O)N3CCCC3)cc2C(N)=O)cc1` was tested. Which “hERG current change (%, negative = inhibition) at 10uM” value did it give?
Answer: -9.45%

Question: `CCOC(=O)c1sc(NC(=O)c2c(OC)cccc2OC)nc1C` was tested. Which “hERG current change (%, negative = inhibition) at 10uM” value did it give?
Answer: -0.673%

Question: How did the “hERG current change (%, negative = inhibition) at 10uM” value turn out when `CC(C)CC(=O)Nc1ccc2c(c1)oc1ccccc12` was run?
Answer: 3.1%

Question: For `C=CCSc1n[nH]c(-c2ccc(OCCCC)cc2)n1`, which “hERG current change (%, negative = inhibition) at 10uM” value is on record?
Answer: -7.32%

Question: Which “hERG current change (%, negative = inhibition) at 10uM” value does the source give for `COc1ccc(Cl)cc1C(=O)OCC(=O)N(C)CC(=O)Nc1ccc(F)cc1` here?
Answer: -13.1%

Question: For `CCc1ccc(NC(=O)[C@H](Cc2ccccc2)NC(=O)C2CCN(C(=O)[C@@H](N)CC(C)C)CC2)cc1`, which “hERG current change (%, negative = inhibition) at 10uM” value is on record?
Answer: -6.14%

Question: For `COCCCn1c(SCC(=O)N2CCc3ccccc32)nnc1-c1ccco1`, which “hERG current change (%, negative = inhibition) at 10uM” value is on record?
Answer: -31.6%

Question: Which “hERG current change (%, negative = inhibition) at 10uM” value does the source give for `COc1cccc(CNC(=O)CN2c3cccc4cccc(c34)S2(=O)=O)c1` here?
Answer: -10.2%

Question: For `O=C(COC(=O)c1cccc(S(=O)(=O)N2CCN(c3ccccc3)CC2)c1)NCc1ccco1`, which “hERG current change (%, negative = inhibition) at 10uM” value is on record?
Answer: 0.98%

Question: For `O=C(CCN1C(=O)/C(=C/c2ccccc2Cl)SC1=S)NN1CCOCC1`, which “hERG current change (%, negative = inhibition) at 10uM” value is on record?
Answer: 6.46%

Question: `CCc1ccc(C(=O)COC(=O)c2cccs2)cc1` was tested. Which “hERG current change (%, negative = inhibition) at 10uM” value did it give?
Answer: 1.91%

Question: With `COc1ccc(C(=O)NCc2nnc(SCC(=O)Nc3cccc(OC)c3)o2)cc1` as the compound, how does the “hERG current change (%, negative = inhibition) at 10uM” value read?
Answer: -1.25%

Question: `CN(CC(=O)N1CCCCCC1)S(=O)(=O)c1ccc(Br)s1` was tested. Which “hERG current change (%, negative = inhibition) at 10uM” value did it give?
Answer: -9.92%

Question: `C/C(=N\NC(=O)c1c(Br)c(C)nn1C)c1ccc(NC(=O)C(C)Oc2ccc(Cl)cc2C)cc1` (stereo not drawn) was tested. Which “hERG current change (%, negative = inhibition) at 10uM” value did it give?
Answer: -3.11%

Question: How did the “hERG current change (%, negative = inhibition) at 10uM” value turn out when `O=C(O)CSc1cccc[n+]1[O-]` was run?
Answer: -11.1%

Question: `Cc1ccc2nc(C)c3c(c2c1)OC(C(C)(Cl)Br)C3` (stereo not drawn) was tested. Which “hERG current change (%, negative = inhibition) at 10uM” value did it give?
Answer: -16.5%

Question: `CCOC(=O)c1cc2c(C)nn(-c3ccccc3)c2s1` was tested. Which “hERG current change (%, negative = inhibition) at 10uM” value did it give?
Answer: -0.348%

Question: For `Cc1ccccc1N1CCN(Cc2nc(Cc3ccccc3)no2)CC1`, which “hERG current change (%, negative = inhibition) at 10uM” value is on record?
Answer: 9.18%

Question: With `COc1ccc2nc(NC(=O)CS(=O)(=O)Cc3ccccc3)sc2c1` as the compound, how does the “hERG current change (%, negative = inhibition) at 10uM” value read?
Answer: 23.2%

Question: How did the “hERG current change (%, negative = inhibition) at 10uM” value turn out when `CCC(C)NS(=O)(=O)c1ccc(OCC(=O)N2CCC(C)CC2)cc1` (stereo not drawn) was run?
Answer: -5.19%

Question: With `COC(=O)CCC(=O)OC1(C)C(=O)C2=CN(CCCOC(C)C)C(c3ccc(OC)cc3)=CC2=C(Br)C1=O` (stereo not drawn) as the compound, how does the “hERG current change (%, negative = inhibition) at 10uM” value read?
Answer: -22.7%

Question: `CCn1c(=NC(=O)c2ccc(S(=O)(=O)N3CCOCC3)cc2)sc2cccc(OC)c21` was tested. Which “hERG current change (%, negative = inhibition) at 10uM” value did it give?
Answer: 5.72%

Question: With `CC12C=CC3(O1)C(C(=O)N1CCCOC13)C2C(=O)O` (stereo not drawn) as the compound, how does the “hERG current change (%, negative = inhibition) at 10uM” value read?
Answer: -2.54%

Question: Which “hERG current change (%, negative = inhibition) at 10uM” value does the source give for `CCOC(=O)c1sc(NC(=O)c2ccccc2OC)nc1C` here?
Answer: 24.2%

Question: With `CS/C(=N\S(=O)(=O)c1cccs1)Nc1ccc(F)cc1` as the compound, how does the “hERG current change (%, negative = inhibition) at 10uM” value read?
Answer: -21.6%

Question: With `Cc1ccc(S(=O)(=O)c2cc3cc(Br)ccc3oc2=O)cc1` as the compound, how does the “hERG current change (%, negative = inhibition) at 10uM” value read?
Answer: -3.16%

Question: `CC(C)Cn1c(-c2ccccc2F)n[nH]c1=S` was tested. Which “hERG current change (%, negative = inhibition) at 10uM” value did it give?
Answer: 4.43%

Question: How did the “hERG current change (%, negative = inhibition) at 10uM” value turn out when `COC(=O)c1cn(NC(=O)CCC2CCCC2)c(=O)c2ccccc12` was run?
Answer: -10%

Question: For `CCN(CC)S(=O)(=O)c1ccc(C(=O)NNC(=O)c2cccs2)cc1`, which “hERG current change (%, negative = inhibition) at 10uM” value is on record?
Answer: -2.66%

Question: Which “hERG current change (%, negative = inhibition) at 10uM” value does the source give for `CC1CCCCC1NC(=O)COC(=O)CNC(=O)c1cccc(F)c1` (stereo not drawn) here?
Answer: 21.9%

Question: Which “hERG current change (%, negative = inhibition) at 10uM” value does the source give for `CC1CCN(CCCNC(=O)c2ccc3c(Cl)c4c(nc3c2)CCCC4)CC1` here?
Answer: -40.9%

Question: Which “hERG current change (%, negative = inhibition) at 10uM” value does the source give for `Cc1ccccc1NC(=S)N1CCC(C(=O)c2ccc(F)cc2)CC1` here?
Answer: -45%

Question: For `Cc1ccc(C(=O)N(C)Cc2ccc(N3CCOCC3)cc2)cc1S(=O)(=O)NCc1ccccc1`, which “hERG current change (%, negative = inhibition) at 10uM” value is on record?
Answer: -55.6%

Question: For `COc1ccc(C(CNC(=O)Cn2c(=O)oc3ccccc32)N(C)C)cc1` (stereo not drawn), which “hERG current change (%, negative = inhibition) at 10uM” value is on record?
Answer: 8.59%

Question: How did the “hERG current change (%, negative = inhibition) at 10uM” value turn out when `COc1ccc(S(=O)(=O)N2CCCCCC2)cc1C(=O)N(C)CCOc1ccc(Cl)cc1` was run?
Answer: -47.7%

Question: For `COc1ccc(/C(N)=N/OC(=O)CCc2ccccc2)cc1`, which “hERG current change (%, negative = inhibition) at 10uM” value is on record?
Answer: 12.4%

Question: For `CC(C)CCn1c(COc2ccccc2)nn(CCC#N)c1=S`, which “hERG current change (%, negative = inhibition) at 10uM” value is on record?
Answer: 7.59%

Question: For `COc1ccc(NC(=O)C2CCN(C(=O)NCc3ccccc3)CC2)cc1`, which “hERG current change (%, negative = inhibition) at 10uM” value is on record?
Answer: -7.59%

Question: `COc1ccc(-n2nc(C(=O)NCC(=O)N3CCC(C)CC3)c3ccccc3c2=O)cc1` was tested. Which “hERG current change (%, negative = inhibition) at 10uM” value did it give?
Answer: 0.344%

Question: For `CCOC(=O)CSc1nc2sc(C)c(C)c2c(=O)n1C`, which “hERG current change (%, negative = inhibition) at 10uM” value is on record?
Answer: -0.412%

Question: `CCC(=O)N1N=C(c2ccc(Cl)cc2)CC1c1ccco1` (stereo not drawn) was tested. Which “hERG current change (%, negative = inhibition) at 10uM” value did it give?
Answer: 0.74%

Question: With `CC(C)CNC(=O)c1cccc(NC(=O)c2ccco2)c1` as the compound, how does the “hERG current change (%, negative = inhibition) at 10uM” value read?
Answer: -3.01%

Question: How did the “hERG current change (%, negative = inhibition) at 10uM” value turn out when `COCCn1cnc2c(c1=O)c1nc3ccccc3nc1n2/N=C/c1ccc(OC)c(OC)c1` was run?
Answer: -13.4%

Question: How did the “hERG current change (%, negative = inhibition) at 10uM” value turn out when `CCOc1ccc(NC(=O)CSc2ncn[nH]2)cc1` was run?
Answer: 6.81%

Question: With `CC1CCC(NC(=O)CSc2nnnn2C)CC1` (stereo not drawn) as the compound, how does the “hERG current change (%, negative = inhibition) at 10uM” value read?
Answer: 6.96%

Question: With `CC(=O)N/C(=C/c1ccc(Cl)cc1)C(=O)NCCc1c[nH]c2ccccc12` as the compound, how does the “hERG current change (%, negative = inhibition) at 10uM” value read?
Answer: -20.8%

Question: For `CCCCC(=O)Nc1nc2c(OC)cc([N+](=O)[O-])cc2s1`, which “hERG current change (%, negative = inhibition) at 10uM” value is on record?
Answer: 9.98%

Question: How did the “hERG current change (%, negative = inhibition) at 10uM” value turn out when `CCCOc1ccc(N2CC(C(=O)NC(C)C)CC2=O)cc1` (stereo not drawn) was run?
Answer: 8.32%

Question: With `CC(C)(C)c1cc(NCc2ccccn2)n2ncc(-c3ccc(Cl)cc3)c2n1` as the compound, how does the “hERG current change (%, negative = inhibition) at 10uM” value read?
Answer: 20.1%

Question: Which “hERG current change (%, negative = inhibition) at 10uM” value does the source give for `COc1cc2[nH]c(-c3cccc(F)c3)cc(=O)c2cc1OC` here?
Answer: 21.5%

Question: `C/C=C/c1ccc(OCC(O)CN(C)Cc2ccc(SC)cc2)c(OC)c1.O=C(O)C(=O)O` (stereo not drawn) was tested. Which “hERG current change (%, negative = inhibition) at 10uM” value did it give?
Answer: -71.2%
